In publication PMC4336329 (PLoS ONE, 2015):
Screen size: about 310,000 compounds; about 14,000 (4.5%) showed an effect of 50% or more. Effects have a minus sign here. The list shows a part of the results.

molecular target: human ether-à-go-go-related gene (hERG) potassium channel (human, UniProt Q12809); test: primary screen, population patch clamp on CHO cells stably expressing hERG
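Also: peak tail current of the secondary pulse compared with the same well before compound.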

human ether-à-go-go-related gene (hERG) potassium channel, sequence (Q12809 whole entry, looked up): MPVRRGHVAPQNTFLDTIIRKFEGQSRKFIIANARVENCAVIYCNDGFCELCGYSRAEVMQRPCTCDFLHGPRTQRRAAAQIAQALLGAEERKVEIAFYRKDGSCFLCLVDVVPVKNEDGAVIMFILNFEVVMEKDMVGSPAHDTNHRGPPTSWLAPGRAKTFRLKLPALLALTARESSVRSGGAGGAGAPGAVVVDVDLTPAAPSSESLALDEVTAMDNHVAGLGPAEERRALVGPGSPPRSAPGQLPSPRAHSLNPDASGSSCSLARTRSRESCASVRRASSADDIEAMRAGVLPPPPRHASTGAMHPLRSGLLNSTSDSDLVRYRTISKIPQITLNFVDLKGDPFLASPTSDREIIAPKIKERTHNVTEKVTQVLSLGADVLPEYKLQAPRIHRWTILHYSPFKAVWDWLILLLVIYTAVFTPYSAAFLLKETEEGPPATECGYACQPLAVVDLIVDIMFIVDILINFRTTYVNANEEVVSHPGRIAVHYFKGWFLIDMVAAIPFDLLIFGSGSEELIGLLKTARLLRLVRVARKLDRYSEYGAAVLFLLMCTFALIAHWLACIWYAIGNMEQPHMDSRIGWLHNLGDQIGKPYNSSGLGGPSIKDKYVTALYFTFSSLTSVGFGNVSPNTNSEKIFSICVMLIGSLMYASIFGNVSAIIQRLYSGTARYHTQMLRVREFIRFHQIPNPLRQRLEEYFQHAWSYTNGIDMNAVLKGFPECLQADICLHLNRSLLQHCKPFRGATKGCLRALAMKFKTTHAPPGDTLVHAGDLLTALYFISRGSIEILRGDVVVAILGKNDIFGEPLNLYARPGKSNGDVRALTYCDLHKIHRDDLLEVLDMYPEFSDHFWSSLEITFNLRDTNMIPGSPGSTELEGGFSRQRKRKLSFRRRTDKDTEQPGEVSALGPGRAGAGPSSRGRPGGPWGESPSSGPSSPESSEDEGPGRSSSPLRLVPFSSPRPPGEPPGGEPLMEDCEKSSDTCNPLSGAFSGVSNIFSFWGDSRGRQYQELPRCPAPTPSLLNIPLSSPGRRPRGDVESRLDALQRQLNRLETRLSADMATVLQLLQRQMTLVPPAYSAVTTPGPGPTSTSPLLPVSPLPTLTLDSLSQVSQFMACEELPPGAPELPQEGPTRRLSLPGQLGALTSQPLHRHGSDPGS

| Structure (SMILES) | hERG current change (%, negative = inhibition) at 10uM |
| --- | --- |
| CCOC(=O)C1CCN(C(=O)Cn2ncc3c([nH]c4ccccc43)c2=O)CC1 | 2.4% |
| Fc1c(F)c(F)c(SCn2cc(Br)cn2)c(F)c1F | 5.23% |
| CCOC(=O)C[C@H]1c2ccc(C(F)(F)F)cc2S(=O)(=O)N1c1ccccc1 | -3.62% |
| Cc1ccc(C)c(C(=O)COC(=O)Cn2c(C)csc2=O)c1 | 10.2% |
| c1ccc2c(-c3nnc(SCc4cn5ccccc5n4)o3)c[nH]c2c1 | -4.5% |
| Cc1cc2c(NC(=O)Nc3ccccc3)cccc2nn1 | 9.77% |
| O=C(CCC(=O)c1cccs1)Nc1ccc(N2CCCCC2)cc1 | -9.27% |
| CS(=O)(=O)Nc1ccc(C(=O)NCCc2ccccc2)cc1 | -69.6% |
| O=C(O)CC(NC(=O)c1ccco1)c1ccco1 (stereo not drawn) | 17.4% |
| COc1ccc(-c2cc(C(F)(F)F)nc(SCC(=O)N(C)Cc3cnn(C)c3C)n2)cc1OC | -42.4% |
| CCCCCC/C=C/c1ccc([C@H]2[C@H]3C=CC[C@@H](C)[C@@H]3C(=O)N2Cc2ccccc2)c(F)c1 | 4.76% |
| O=C(COc1ncnc2ccccc12)NCCc1ccc(F)cc1 | -6.11% |
| CC(=O)N/C(=C\c1ccccc1)C(=O)OCC(=O)c1c(N)n(CC(C)C)c(=O)n(C)c1=O | -3.67% |
| CCNC(=O)C/C(C)=N/NC(=O)C12CC3CC(CC(C3)C1)C2 | 22.3% |
| O=C(Cn1cc([N+](=O)[O-])cn1)Nc1cccnc1 | 10.1% |
| COc1cccc(C(=O)c2c[nH]c(C(=O)NCCCN3CCOCC3)c2)c1 | 38.1% |
| CCOC(=O)c1cnc(SC)nc1Oc1cccc(NC(=O)c2ccc(C)cc2)c1 | 11.4% |
| Cc1cccc(C(=O)Nc2cccc(Br)c2)c1[N+](=O)[O-] | 10.1% |
| COP(=O)(OC)c1nc(-c2cccc3ccccc23)oc1NCCc1ccccc1 | 1.62% |
| CN1CCC(NC(=O)c2cccs2)CC1 | 6.5% |
| O=C(CCSc1nc(-c2ccco2)cc(C(F)(F)F)n1)NCCN1CCOCC1 | 10% |
| O=C1/C(=C/c2ccncc2)SC(=S)N1C1CCCCC1 | 6.81% |
| Clc1ccc(-c2nnnn2-c2ccc(Cl)cc2)cc1 | 6.99% |

| Structure (SMILES) | hERG current change (%, negative = inhibition) at 10uM |
| --- | --- |
| CN[C@H](CC(=O)O)C(=O)O | -6.27% |
| O=C(O)c1c2c(nc3ccc(Cl)cc13)CCC2 | 4.39% |
| CN1CCN(C(=O)c2cc(C(C)(C)C)cc(C(C)(C)C)c2)CC1 | -12.1% |
| COc1ccc(NC(=O)CCS(=O)(=O)c2ccccc2)c(OC)c1 | -3.69% |
| COc1ccc(C)cc1NC(=O)Nc1ccc(C(=O)N2CCCC2)cc1 | -23% |
| COc1ccc(OCc2nnc(SC3CCOC3=O)n2-c2ccccc2)cc1 (stereo not drawn) | -11.2% |
| CN1CCN(S(=O)(=O)c2ccc(NN)nc2)CC1 | -17% |
| Cc1ccc(S(=O)(=O)N/N=C(\c2ccccc2)c2cccnc2)cc1 | -1.87% |
| Oc1ccc(-c2cnc(-c3ccc(O)cc3)nc2)cc1 | 9.71% |
| O=C(Nc1cccnc1)c1cc(-c2cc(Cl)ccc2O)n[nH]1 | -1.89% |
| CN(CCOC(=O)c1cccc(Br)c1)C(C)(C)C.Cl | -35.9% |
| Cc1ccccc1S(=O)(=O)Oc1ccc2ccc(O)cc2c1 | 8.84% |
| CC(C(=O)NCCCn1ccnc1)(c1ccccc1)c1ccccc1.Cl | -73.1% |
| O=C1N/C(=N\N=C\c2cccnc2)SC1Cc1ccc(SC(F)F)cc1 (stereo not drawn) | -0.761% |
| C=CCN1CCN(C(c2ccc(Cl)cc2)c2nnnn2CCc2ccc(OC)c(OC)c2)CC1.Cl (stereo not drawn) | -48.1% |
| c1ccc(-c2nc3nonc3nc2-c2ccccc2)cc1 | -15.6% |
| CCOC(=O)N1CCN(C(=O)c2c(Cl)cnn2C)CC1 | 3.04% |
| CCOc1ccc(NC(=O)Nc2cnccn2)cc1 | 4.33% |
| CCOc1ccc(NC(=O)COC(=O)CCN2C(=O)C3CC=CCC3C2=O)cc1OCC (stereo not drawn) | -7.18% |
| CN1CCN(C(CNC(=O)c2ccc(Br)o2)c2ccc(F)cc2)CC1 (stereo not drawn) | -17.5% |
| CCCCN(NC(C)=O)c1nc(Cl)nc(NC(C)C)n1 | -6.31% |
| CC(=O)c1cccc(NC(=O)NCc2ccc3c(c2)OCO3)c1 | 0.0636% |
| O=C(Nc1ccccc1-c1nnn(CC(=O)N2CCN(c3ccccc3)CC2)n1)c1cccs1 | 6.09% |

| Structure (SMILES) | hERG current change (%, negative = inhibition) at 10uM |
| --- | --- |
| NC(=S)NC(=O)c1ccccc1 | 23.2% |
| CCN(CCCNC(=O)CCCn1c(=O)[nH]c2ccccc2c1=O)c1cccc(C)c1 | -0.748% |
| CCOC(=O)c1sc(NC(=O)CSc2nncs2)c(C(=O)OCC)c1C | -1.04% |
| COc1cc([N+](=O)[O-])ccc1NC(=O)CC(C)C | -11.5% |
| Cc1ccccc1OCCn1cc(C=O)c2ccccc21 | 12.4% |
| Cc1cccc2c1NC(=O)C21N2CCCC2C(C(=O)c2ccc3ccccc3c2)C12C(=O)Nc1ccccc12 (stereo not drawn) | 0.696% |
| Cc1ccc(NC(=O)C2CC(=O)N(c3ccc4c5c(cccc35)CC4)C2)cc1 (stereo not drawn) | 4.76% |
| O=C1NC(=O)/C(=C/c2ccc(-c3cc(C(=O)O)ccc3Cl)o2)S1 | 17.9% |
| O=C(NCC1CCCO1)c1ccc(NC(=O)C2CCCCC2C(=O)O)cc1 (stereo not drawn) | 13.7% |
| NS(=O)(=O)c1ccc(NC(=O)CSc2ccccn2)cc1 | 1.46% |
| COc1ccc(C(NC(=O)CC(C)C)c2c(O)ccc3ccccc23)cc1 (stereo not drawn) | -3.53% |
| CCOC(=O)c1oc2ccccc2c1COC(=O)CNC(=O)c1ccco1 | -16% |
| COC(=O)/C(C#N)=C/c1c(N2CCN(c3cccc(Cl)c3)CC2)nc2c(C)cccn2c1=O | -1.84% |
| Cc1ccc(N2CC(C(=O)Nc3nnc(SCCC4OCCO4)s3)CC2=O)cc1C (stereo not drawn) | 22.2% |
| COc1ccccc1NC(=O)CN(Cc1ccco1)C(=O)c1cncc(Br)c1 | -22.4% |
| CCCn1c(-c2ccc(OC)cc2)nc2ccccc21 | -16.1% |
| CCCCSc1nc(N)c(NC(=O)c2ccco2)c(=O)[nH]1 | 14.2% |
| CSc1nc(O)c(C(c2ccc(OC(C)C)cc2)c2c(O)nc(SC)[nH]c2=O)c(=O)[nH]1 | 16.9% |
| Cc1cn(C2OC(CC(=O)Oc3ccccc3)C(O)C2O)c(=O)[nH]c1=O (stereo not drawn) | 8.48% |
| Cc1c(CCC(=O)NC2CC2)c(=O)oc2c(C)c(O)ccc12 | 18.3% |
| COc1c(O)c(=O)n2c3ccccc3c3ccnc1c32 | 7.51% |
| CCOc1cc(/C=N/n2c(C)nc3sc(C)c(C)c3c2=O)ccc1O | 13.2% |
| O=C(O)c1ccccc1/C=N/NC(=O)C1CCCCC1 | -1.66% |

| Structure (SMILES) | hERG current change (%, negative = inhibition) at 10uM |
| --- | --- |
| CC(C)CCNC(=O)C1CCCN(S(=O)(=O)c2ccc(-n3cnnn3)cc2)C1 (stereo not drawn) | 22.5% |
| Cc1ccc(C2=NC(C)(C)N3C2C3c2ccc([N+](=O)[O-])cc2)cc1 (stereo not drawn) | -30.5% |
| Cc1cccc(OCC(=O)N(Cc2ccco2)c2c(N)n(Cc3ccccc3)c(=O)[nH]c2=O)c1 | -14.2% |
| COc1ccccc1N1CCN(C(=O)C2CC=CCC2C(=O)O)CC1 (stereo not drawn) | -13.1% |
| Cc1cc(C)c(NC(=O)CS(=O)CC(=O)N2CCN(c3ccccc3)CC2)c(C)c1 (stereo not drawn) | -12.1% |
| CCOc1ccc(-c2c(C(=O)N/N=C/c3ccc(O)cc3)nnn2-c2nonc2N)cc1 | 17.5% |
| O=C(O)c1cccnc1C(=O)N1CCc2c([nH]c3ccccc23)C1C(F)(F)F (stereo not drawn) | 10.1% |
| Cc1[nH]c2ccccc2c1C(c1ccccn1)N1CCCC1 (stereo not drawn) | -29.1% |
| CCOC(=O)C1CCN(C(=O)c2cc3cc(C)ccc3[nH]2)CC1 | -27.3% |
| CCc1nonc1NC(=O)c1oc2cc(C)c(Cl)cc2c1C | 16.3% |
| CCOC(=O)Cn1c(=N)n(CCOc2cccc(C)c2)c2ccccc21.Cl | -62.2% |
| Nc1nc(N2CCN(c3cccc(Cl)c3)CC2)n[nH]1 | 5.88% |
| NC(=O)c1cc(S(=O)(=O)NCCc2ccc(S(N)(=O)=O)cc2)cs1 | 9.13% |
| CCSC1=NCCN1S(=O)(=O)c1ccc2ccccc2c1 | -11.8% |
| CCOc1cc(NC(=S)NCC2CCCO2)c(OCC)cc1NC(=O)c1ccc(C)cc1 (stereo not drawn) | -1.6% |
| COc1ccc(OC)c(COC(=O)c2cc([N+](=O)[O-])ccc2N2CCOCC2)c1 | -18% |
| COc1ccc(Cl)cc1NC(=S)NNC(=O)c1cccs1 | 20% |
| CC1CCN(C(=O)Cn2cc(C(=O)c3ccco3)c3ccccc32)CC1 | 9.74% |
| O=C(Nc1ccccc1)c1ccc(NCC2CCCO2)c([N+](=O)[O-])c1 (stereo not drawn) | -2.42% |
| CCCN(CCC)CCCOC(=O)c1ccc(Cl)cc1Cl.Cl | -70.1% |
| COc1cccc2sc(N3CCN(C(=O)c4cccs4)CC3)nc12 | -14.3% |
